Experimental data taken from PubChem BioAssay AID1347165 (National Center for Advancing Translational Sciences (NCATS), 2019).
Screen size: about 220,000 compounds; about 5,700 (2.6%) were called active. The shares of active, inactive and inconclusive entries below differ from those in the screen. The call rests on the fitted dose curve; in most records, active means well fitted inhibition curve with a large enough effect; inconclusive means small, poorly fitted or top-dose-only effect; inactive means no such curve, though single readings can be large or run the other way. Potencies beside an inconclusive call are fits to weak or partial responses and may not hold up.

Target: Lysine-specific demethylase 5B (Homo sapiens) (UniProt Q9UGL1)
Experiment: Primary screen for KDM5B Histone Demethylases FDH-coupled qHTS; further: nearly all actives have a fitted effect of over 70% in size; on activity change, negative = inhibition: 0% is about no effect
Conditions: FDH-coupled NADH fluorescence (FDH is formaldehyde dehydrogenase); activity change, negative = inhibition: at 57.7 µM (top of the series) unless noted
Summary of the method: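 KDM5BΔAP (200 nM final) in 50 mM HEPES pH 7.5, 0.01% Tween-20 was preincubated 10 min at RT with compound over a concentration range. Substrate mix (H3K4me3 12.5 µM, α-KG 25 µM, Fe²⁺, ascorbate, NAD⁺, FDH) was added, and NADH fluorescence change over 30 min gave dose-response curves.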
Potency means the concentration at half of the fitted maximal effect; tags describe the fitted curve by direction and shape.

Sequence of UniProt Q9UGL1 (Q9UGL1 whole entry, looked up): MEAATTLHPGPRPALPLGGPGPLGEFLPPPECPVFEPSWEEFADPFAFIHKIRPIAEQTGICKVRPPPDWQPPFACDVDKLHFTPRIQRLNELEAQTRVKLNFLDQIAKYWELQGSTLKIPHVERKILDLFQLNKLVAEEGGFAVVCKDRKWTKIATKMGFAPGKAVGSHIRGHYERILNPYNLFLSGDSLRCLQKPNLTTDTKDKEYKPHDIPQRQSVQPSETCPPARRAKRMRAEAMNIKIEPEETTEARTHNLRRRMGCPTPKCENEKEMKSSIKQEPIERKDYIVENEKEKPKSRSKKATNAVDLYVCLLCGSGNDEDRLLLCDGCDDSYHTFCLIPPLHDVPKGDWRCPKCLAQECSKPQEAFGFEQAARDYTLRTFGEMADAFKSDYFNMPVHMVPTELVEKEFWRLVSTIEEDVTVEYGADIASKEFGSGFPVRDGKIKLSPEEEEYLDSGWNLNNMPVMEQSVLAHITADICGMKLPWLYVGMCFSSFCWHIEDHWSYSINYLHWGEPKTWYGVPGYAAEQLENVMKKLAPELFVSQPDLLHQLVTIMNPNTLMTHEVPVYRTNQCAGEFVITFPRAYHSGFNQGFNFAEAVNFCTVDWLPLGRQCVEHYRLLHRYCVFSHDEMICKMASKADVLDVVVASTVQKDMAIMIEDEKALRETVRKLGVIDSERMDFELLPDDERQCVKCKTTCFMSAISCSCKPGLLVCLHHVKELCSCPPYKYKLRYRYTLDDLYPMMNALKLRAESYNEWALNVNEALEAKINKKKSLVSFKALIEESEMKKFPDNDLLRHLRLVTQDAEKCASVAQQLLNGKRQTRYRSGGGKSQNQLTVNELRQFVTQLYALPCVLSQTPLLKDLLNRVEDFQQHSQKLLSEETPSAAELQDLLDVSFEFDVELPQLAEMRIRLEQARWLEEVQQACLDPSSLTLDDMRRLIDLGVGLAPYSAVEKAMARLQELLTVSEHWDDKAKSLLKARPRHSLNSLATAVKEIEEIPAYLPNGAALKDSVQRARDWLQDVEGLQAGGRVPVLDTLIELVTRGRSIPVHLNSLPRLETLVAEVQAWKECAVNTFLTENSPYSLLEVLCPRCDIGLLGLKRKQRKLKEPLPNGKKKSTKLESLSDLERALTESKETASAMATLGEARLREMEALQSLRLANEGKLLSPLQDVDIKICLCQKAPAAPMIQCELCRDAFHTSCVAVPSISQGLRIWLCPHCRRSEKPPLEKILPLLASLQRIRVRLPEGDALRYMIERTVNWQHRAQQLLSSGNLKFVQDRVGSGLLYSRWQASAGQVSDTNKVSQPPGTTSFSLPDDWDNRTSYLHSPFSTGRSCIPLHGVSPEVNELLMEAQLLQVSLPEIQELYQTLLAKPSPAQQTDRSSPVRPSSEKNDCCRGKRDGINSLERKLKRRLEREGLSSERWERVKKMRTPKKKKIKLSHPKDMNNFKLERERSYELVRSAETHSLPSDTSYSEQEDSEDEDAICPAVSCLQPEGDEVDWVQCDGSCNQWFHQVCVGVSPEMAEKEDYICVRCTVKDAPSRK

Row | Compound | activity change, negative = inhibition | Potency
1 | CSC(C)C(=O)Nc1sccc1C#N (stereo unspecified) | inactive: 16.9% | 
2 | COc1ccc(Nc2ncnc3sc(-c4ccccc4)cc23)c(OC)c1 |  | inconclusive: 35.5 µM [inhibitor, partial curve, poor fit]
3 | CCOc1ccccc1OCc1nn2c(C3COc4ccccc4O3)nnc2s1 (stereo unspecified) |  | inconclusive: 12.6 µM [inhibitor, single point]
4 | COc1ccccc1NC(=O)c1c(NCc2ccc(OC)c(OC)c2OC)sc2c1CCCC2 |  | inconclusive: 35.5 µM [inhibitor, single point]
5 | O=C(NCCc1csc2nc(-c3ccccc3F)nn12)c1ccco1 | inactive: -21.1% | 
6 | O=C(NC(=O)c1ccc(F)cc1)Nc1ccc(-c2cc(C(F)(F)F)nn2-c2ccccc2)cc1 |  | inconclusive: 31.6 µM [inhibitor, partial curve, poor fit]
7 | Cc1ccc(S(=O)(=O)N(C)[C@H]2C[C@H]3c4cc(-c5ccccc5C)ccc4CCN3C[C@H]2[C@H](C)O)cc1 |  | inconclusive: 22.4 µM [inhibitor, single point]
8 | CC(C)(C)c1ccc(OCC(=O)N2CCC(c3nc4ccccc4s3)CC2)cc1 | inactive: 10.7% [at 11.5 µM] | 
9 | COc1ccc(CCc2nc3nccc(-c4ccco4)n3n2)cc1OC | inactive: -32% | 
10 | O=C1CC(c2ccccc2)c2ncn(-c3cc(F)ccc3F)c2N1 (stereo unspecified) |  | inconclusive: 35.5 µM [inhibitor, partial curve, poor fit]
11 | CCOc1ccc2c(n1)CCN(C(=O)Cc1ccccc1C)C2 | inactive: -17.5% | 
12 | Cc1nnc(N2CCC(CO)(CN3CCCC3)CC2)c2ccccc12 |  | inconclusive: 17.8 µM [inhibitor, single point]
13 | C=CCOc1ccc(Cl)cc1CNCc1ccccc1 | inactive: 15.8% | 
14 | CCCOC1(C(F)(F)F)NC(=O)N(c2ccc(Cl)cc2)C1=O (stereo unspecified) | inconclusive: -34.3% [inhibitor] | 
15 | COc1cccc(NC(=O)Nc2cccc(-c3cn4cccnc4n3)c2)c1 |  | inconclusive: 25.1 µM [inhibitor, partial curve, poor fit]
16 | COc1ccc(NC(=O)c2noc3c2CCCC3)cc1Cl |  | inconclusive: 31.6 µM [inhibitor, partial curve, poor fit]
17 | Cc1ccc(-c2ccc3nnc(CNC(=O)COc4ccccc4)n3n2)cc1 |  | active: 35.5 µM
18 | COc1ccc2nc(/C(C#N)=C\c3ccco3)[nH]c2c1 |  | inconclusive: 39.8 µM [inhibitor, single point]
19 | O=C(CCn1c(=O)oc2ccccc21)Nc1cccc(S(=O)(=O)N2CCCC2)c1 | inactive: 2.93% | 
20 | COc1cccc(CNC(=O)[C@@H]2C[C@@H](O)CN2C2CCN(C(=O)c3ccncc3)CC2)c1 | inactive: -17% | 
21 | NC(=O)Cc1c[nH]c2ncc(-c3ccccc3Oc3ccccc3)cc12 |  | inconclusive: 35.5 µM [inhibitor, single point]
22 | Cc1nc2c(C(=O)NCc3ccccc3)c[nH]n2c(=O)c1Cc1ccccc1Cl |  | inconclusive: 28.2 µM [inhibitor, partial curve, poor fit]

Row | Compound | activity change, negative = inhibition | Potency
23 | Cc1ccc(OCC(=O)Nc2ccc3c(C)cc(=O)oc3c2)cc1 |  | inconclusive: 20 µM [inhibitor, partial curve, poor fit]
24 | CCCCN(CCCNC(=O)c1cc(Nc2ccc(OC)c(OC)c2)nc2ccccc12)Cc1ccccc1 |  | inconclusive: 35.5 µM [inhibitor, single point]
25 | COc1ccc(S(=O)(=O)NCCc2csc(-c3ccc(F)cc3)n2)cc1F |  | inconclusive: 31.6 µM [inhibitor, single point]
26 | CCOC(=O)C1=C(C)N=C2SCCC(=O)N2C1c1ccc(OCc2ccccc2)cc1 (stereo unspecified) |  | inconclusive: 17.8 µM [inhibitor, partial curve, poor fit]
27 | CCC(C)C(=O)Nc1c(C(=O)OC)n(CC2CCCO2)c2ncc(NC(C)CC(C)(C)O)cc12 (stereo unspecified) |  | inconclusive: 15.8 µM [inhibitor, partial curve, poor fit]
28 | O=C(O)CCCC(=O)N1CCNCC1 | inactive: 10.4% | 
29 | Cc1ccc(-n2ncc3c(NC4CCCCCC4)ncnc32)cc1Cl |  | inconclusive: 25.1 µM [inhibitor, partial curve, poor fit]
30 | COc1ccc2nc(SC3CC(=O)N(c4ccc(C)c(C)c4)C3=O)nc(C)c2c1 (stereo unspecified) |  | inconclusive: 6.31 µM [inhibitor, full curve, poor fit]
31 | COc1ccc(N2C(=O)C3(CCCCC3)C2C(=O)NCCCN2CCCC2=O)cc1 (stereo unspecified) | inactive: 6.28% | 
32 | CC(C)C[C@@H]1N[C@H](C(=O)NCc2cccnc2)Cc2c[nH]c3cccc1c23 | inactive: -9.51% [at 86.2 µM] | 
33 | COc1cccc(CCC(=O)N2CCCC2c2nc(C3CCOCC3)no2)c1 (stereo unspecified) |  | inconclusive: 17.8 µM [inhibitor, partial curve]
34 | COCCCNC(=S)NNC(=O)c1cc(C2CC2)nc2ccccc12 | inactive: 19.5% | 
35 | CC1=C[C@@H](CN2CCC(C(N)=O)CC2)[C@H](C(C)C)C[C@H]1Cc1nnc(-c2ccc(N(C)C)cc2)o1 |  | inconclusive: 22.4 µM [inhibitor, single point]
36 | CCC(Sc1nc2ccccc2c(=O)n1CCc1ccc(OC)c(OC)c1)C(=O)N(CC)CC (stereo unspecified) |  | inconclusive: 25.1 µM [inhibitor, single point]
37 | CCC(CC)C(=O)Nc1ccc(N(C)C)cc1 |  | inconclusive: 31.6 µM [inhibitor, single point]
38 | COc1cc(NC(=O)c2ncoc2-c2cccs2)cc(OC)c1 |  | inconclusive: 25.1 µM [inhibitor, partial curve, poor fit]
39 | CCC(=O)N(CCC(c1ccccc1)c1ccc2c(c1)OCO2)Cc1ccc(OC(C)C)cc1 (stereo unspecified) |  | inconclusive: 17.8 µM [inhibitor, partial curve, poor fit]
40 | N#C/C(=C/c1ccc(-c2ccccc2F)o1)c1nc2ccccc2[nH]1 |  | inconclusive: 28.2 µM [inhibitor, partial curve, poor fit]
41 | COc1cc(/C=C2\CCC(C3CCCC3)C2=O)ccc1OCCC(C)C (stereo unspecified) |  | inconclusive: 22.4 µM [inhibitor, single point]
42 | CC(C)c1ccccc1NC(=O)Cn1ccn2nc(-c3ccc(F)cc3)c(CO)c2c1=O |  | inconclusive: 25.1 µM [inhibitor, single point]
43 | O=C(Nc1ccc(F)cc1F)N1CCOc2ccc(CN3CCc4ccccc4C3)cc2C1 |  | inconclusive: 15.8 µM [inhibitor, partial curve]
44 | NNc1ncnc2ccc([N+](=O)[O-])cc12 |  | inconclusive: 22.4 µM [inhibitor, single point]

Row | Compound | activity change, negative = inhibition | Potency
45 | COc1ccc(-c2cnc3[nH]cc(CC(=O)NCc4cccnc4)c3c2)cc1OC |  | inconclusive: 31.6 µM [inhibitor, single point]
46 | O=c1nc2n(-c3ccccc3F)c3ccccc3cc-2c(=O)[nH]1 |  | inconclusive: 31.6 µM [inhibitor, partial curve, poor fit]
47 | O=C(Nc1ccc(OC(F)(F)F)cc1)c1cc2ccccn2n1 |  | inconclusive: 25.1 µM [inhibitor, single point]
48 | CCOc1ccccc1C(=O)Oc1ccc(-c2ccc(C#N)cc2)cc1 | inactive: 13.4% | 
49 | CCCCn1cc2c(c1-c1ccc(Cl)cc1)c(=O)n(C)c(=O)n2C |  | inconclusive: 17.8 µM [inhibitor, partial curve, poor fit]
50 | O=C(O)C(c1ccccc1)N1C(=O)/C(=C\c2ccc(O)c(O)c2)SC1=S (stereo unspecified) |  | inconclusive: 22.4 µM [inhibitor, single point]
51 | O=C(Nc1ccc2c(c1)CCCN2C(=O)c1cccs1)c1ccccc1Cl | inactive: -54.1% | 
52 | COCCNC(=S)N(C)[C@H]1C[C@H]2c3[nH]c4c(-c5ccc6c(c5)OCO6)cccc4c3CCN2C[C@H]1[C@H](C)O |  | inconclusive: 25.1 µM [inhibitor, partial curve, poor fit]
53 | CCCc1ccc(S(=O)(=O)NC2CCN(c3ccc(=O)n(CC4CC4)n3)CC2)cc1 |  | active: 28.2 µM
54 | Brc1ccc(COc2cccc3cccnc23)cc1 |  | inconclusive: 39.8 µM [inhibitor, single point]
55 | Cc1ccc(-n2nnnc2SCc2ncc(-c3ccccc3)o2)c(C)c1 | inactive: 4.49% | 
56 | COc1cc(NC(=O)Cn2c(Nc3cc(C)cc(C)c3)nc(C)cc2=O)cc(OC)c1OC | inactive: -12.1% | 
57 | CN(CC(=O)Nc1ccc(F)cc1)C(=O)c1ccc(-n2cccc2)cc1 | inactive: -4.56% | 
58 | Cn1nnnc1NCc1ccc(-c2ccc(Cl)cc2)o1 |  | inconclusive: 39.8 µM [inhibitor, single point]
59 | CCC(C(=O)N1CCN(c2cc(-c3cccs3)[nH]n2)CC1)c1ccccc1 (stereo unspecified) |  | inconclusive: 31.6 µM [inhibitor, partial curve, poor fit]
60 | O=C1O[C@@H]2CN(c3ncccn3)C[C@@H]2N1CCc1ccc(F)cc1 |  | inconclusive: 22.4 µM [inhibitor, partial curve, poor fit]
61 | Cc1ccccc1-c1[nH]nc2ncc(-c3ccnn3C)nc12 |  | active: 35.5 µM
62 | O=C(Cn1c(=O)c2c(ncn2C2CCCC2)n(Cc2ccccc2)c1=O)Nc1ccccc1 | inactive: 12.1% | 
63 | CCCn1cc(-c2ccncc2)cc1C(=O)N1CCN(c2ccccc2F)CC1 | inactive: 14.2% | 
64 | Cc1nn(C(=O)CCC(=O)N2CCC(CCOc3ccccc3)C2)c2ccccc12 (stereo unspecified) |  | inconclusive: 31.6 µM [inhibitor, single point]
65 | CCCNC(=O)CCc1c(C)n(CC)c2cc(-c3ccccc3OC)nn2c1=O |  | inconclusive: 22.4 µM [inhibitor, partial curve, poor fit]
66 | CC(C)Cc1nc(NCCO)c(C#N)c2c1CCCC2 |  | inconclusive: 20 µM [inhibitor, partial curve, poor fit]
